Data as given in PubChem BioAssay (NCI).
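Cells were grown in 96-well plates and exposed to each compound for 48 hours at five concentrations; endpoints were interpolated linearly between bracketing concentrations, or set to the highest concentration if not reached. GI50 is the concentration that inhibits growth by half.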 Some entries of the source have several records that differ or are many. Only these are listed. The source may hold further records. A record mostly stands for its own series of concentrations, not given here; some values may only mark the edge of a range.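 TGI: total growth inhibition.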

How the values were obtained:
Test in all cases: growth of human tumour cells (NCI), 48 h
[1] = system: 786-0 renal
[2] = system: BT-549 breast
[3] = system: DU-145 prostate
[4] = system: EKVX NSCLC
[5] = system: HOP-62 NSCLC
[6] = system: IGROV1 ovarian
[7] = system: K-562 leukemia
[8] = system: MOLT-4 leukemia
[9] = system: NCI-H460 lung
[10] = system: NCI-H522 lung
[11] = system: SF-268 CNS
[12] = system: SK-MEL-2 melanoma
[13] = system: SK-OV-3 ovarian
[14] = system: SR leukemia
[15] = system: U251 CNS
[16] = system: UO-31 renal
[17] = system: HL-60(TB) leukemia

SMILES	GI50 [1]	GI50 [2]	GI50 [3]	GI50 [4]	GI50 [5]	GI50 [6]	GI50 [7]	GI50 [8]	GI50 [9]	TGI [10]	GI50 [11]	GI50 [12]	GI50 [13]	GI50 [14]	GI50 [15]	GI50 [16]	TGI [17]
Cc1cc(C)cc(Nc2ccc([N+](=O)[O-])c(NCCN3CCOCC3)n2)c1	3.53 nM and 52.4 nM	5.56 nM and 58.7 nM	2.84 nM and 41.7 nM	4.04 nM and 44.8 nM	1.79 nM and 30.4 nM	3.53 nM and 48.9 nM	0.995 nM and 11.5 nM	5.18 nM and 55.7 nM	1.66 nM and 17.5 nM	0.855 nM and 151 nM	7.32 nM and 133 nM	1.39 nM and 34.3 nM	4.46 nM and 59 nM	0.962 nM and 17.4 nM	2.67 nM and 31.1 nM	76 nM and 1.38 µM	
CC(C)C1OC(=O)/C=C/C=C/C=C/C=C/C=C/CC(O)C(C)C(O)CC(O)CC(O)CC(O)CC(O)CC(O)CC(O)/C=C/C1C (configuration not stated)																	> 100 µM and 4.36 µM
